Data reported in the supplement of paper PMC4723716.
± gives the uncertainty stated by the source. In all, about 9,900 compounds were measured (“viability index relative to DMSO control”: median about 1, lowest 2% from about 0.85 on). Some of the results follow.

system: Plasmodium falciparum NF54 stage V gametocytes; experiment: viability index relative to DMSO control (fraction); higher = less gametocyte killing; conditions: 2.5 µM, library set: Broad Institute DOS, incubation time: 72 h
Protocol: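 Broad DOS informer set and blood-stage-active DOS compounds screened in duplicate at 2.5 µM against P. falciparum NF54 stage V gametocytes with the serum-free one-step SaLSSA (1536-well): 72 h at 37 °C under low oxygen, then saponin lysis and MitoTracker Red CMXRos staining, with high-content imaging. Viability index = viable-object count divided by the plate mean of DMSO wells (0 = killed, about 1 = inactive).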

| SMILES | viability index |
| --- | --- |
| COc1ccccc1NC(=O)N1C[C@H](O)COC[C@@H]2O[C@H](CC(=O)N3CCC(Cc4ccccc4)CC3)CC[C@H]21 | 1.1 ± 0.022 |
| COc1ccc2c3c([C@@H](CO)N(C[C@]33CCN(Cc4nccs4)CC3)C(=O)NC(C)C)n(C)c2c1 | 1 ± 0.11 |
| C[C@@H]1CCCCO[C@@H](CN(C)S(C)(=O)=O)[C@H](C)CN([C@@H](C)CO)C(=O)c2cc(NC(=O)NC3CCCCC3)ccc2O1 | 1.12 ± 0.11 |
| CCCC(=O)Nc1ccc2c(c1)C(=O)N(C)C[C@@H](OC)[C@@H](C)CN(C(=O)c1ccccn1)[C@H](C)CO2 | 0.989 ± 0.16 |
| CN(C)C(=O)C[C@H]1CC[C@@H]2[C@H](COC[C@H](O)CN2C(=O)C2CCOCC2)O1 | 1.07 ± 0.1 |
| COc1ccc2c3c([nH]c2c1)[C@@H](CO)N(Cc1ccc(Cl)cc1)C[C@]31CCN(Cc2nccs2)CC1 | 0.814 ± 0.015 |
| O=C(c1ccccc1F)N1C[C@@H]2[C@H](c3ccccc31)[C@@H](CO)N2C(=O)Nc1ccccc1 | 1.03 ± 0.026 |
| CCCC(=O)N1CC[C@@]2(CC1)CN(Cc1ccc(Cl)cc1)[C@H](CO)c1[nH]c3cc(OC)ccc3c21 | 0.873 ± 0.16 |
| CCCNC(=O)N1[C@@H](CO)[C@@H](c2ccccc2)C12CN(CCC(F)(F)F)C2 | 1.133 ± 0.01 |
| CCNC(=O)c1cc2c(c(-c3cccc(-c4ccccc4F)c3)n1)[C@H](CCO)N(C(=O)CC1CC1)C2 | 1.05 ± 0.051 |
| COCC#Cc1ccc([C@H]2[C@H]3CN(Cc4cccnc4)CCCCN3[C@H]2CO)cc1 | 1.03 ± 0.07 |
| CO[C@H](CN(C)C(=O)C1CCOCC1)[C@@H](C)CN([C@H](C)CO)S(=O)(=O)c1ccccc1 | 1.15 ± 0.045 |
| C[C@@H]1CN([C@@H](C)CO)S(=O)(=O)c2ccc(-c3cncnc3)cc2O[C@@H]1CN(C)C(=O)NC1CCCC1 | 0.973 ± 0.019 |
| COCC(=O)Nc1ccc2c(c1)C(=O)N(C)[C@H]1CC[C@@H](CC(=O)NC3Cc4ccccc4C3)O[C@@H]1CO2 | 1.16 ± 0.13 |
| O=C(NCC1CC1)[C@@H]1[C@@H](CO)[C@@H]2Cn3c(ccc(-c4ccccc4F)c3=O)[C@H]1N2Cc1cncnc1 | 1.05 ± 0.02 |
| O=C(C[C@H]1CC[C@@H]2[C@H](COC[C@@H](O)CN2C(=O)c2cnccn2)O1)NCc1ccc(Cl)cc1 | 1.02 ± 0.075 |
| COCCNC(=O)C[C@@H]1CC[C@H]2[C@@H](COC[C@@H](O)CN2C(=O)c2cc(Cl)cc(Cl)c2)O1 | 1.05 ± 0.019 |
| COc1ccc(S(=O)(=O)N2C[C@H](O)COC[C@@H]3O[C@H](CC(=O)N[C@H]4CCN(Cc5ccccc5)C4)CC[C@H]32)cc1 | 0.995 ± 0.11 |

| SMILES | viability index |
| --- | --- |
| CO[C@H]1CN(C)C(=O)c2cc(NC(=O)C3CCCCC3)ccc2OC[C@H](C)N(C(=O)c2ccccc2)C[C@@H]1C | 1.04 ± 0.04 |
| C/C=C/c1ccc([C@@H]2[C@@H](CO)N(C(=O)C3CCC3)C23CN(C(=O)NC(C)C)C3)cc1 | 1.059 ± 0.0085 |
| COCC(=O)N1CC[C@@H]2[C@@H](CO)N(C)c3ccc(-c4cccc(F)c4)cc3[C@@H]21 | 1.12 ± 0.016 |
| O=C(c1ccccc1)N1[C@H](CO)[C@H](c2ccccc2)C12CN(Cc1nccs1)C2 | 1.08 ± 0.018 |
| CS(=O)(=O)N1CC(=O)N2[C@H](CO)[C@H](c3ccc(C#CCC4CCCC4)cc3)[C@@H]2C1 | 1.05 ± 0.037 |
| COc1cccc(S(=O)(=O)Nc2ccc3c(c2)C(=O)N(C)[C@@H]2CC[C@H](CC(=O)NCC4CCCCC4)O[C@@H]2CO3)c1 | 1.01 ± 0.026 |
| CCCC#Cc1cnc2c(c1)C(=O)N([C@@H](C)CO)C[C@H](C)[C@H](CN(C)C(=O)Nc1cc(F)ccc1F)O2 | 1.02 ± 0.096 |
| CCCNC(=O)N1[C@H](CO)[C@@H](c2ccccc2)C12CN(CCC(F)(F)F)C2 | 1.1 ± 0.029 |
| COc1ccc(S(=O)(=O)N(C)C[C@@H]2Oc3c(NC(=O)c4nc5ccccc5s4)cccc3C(=O)N([C@H](C)CO)C[C@@H]2C)cc1 | 0.951 ± 0.047 |
| O=C(C[C@H]1CC[C@H]2NC[C@H](O)COC[C@@H]2O1)NCCN1CCCCC1 | 0.966 ± 0.15 |
| CCCNC(=O)N1CC[C@@]2(CC1)CN(Cc1ccccn1)[C@H](CO)c1c2c2ccc(OC)cc2n1C | 1 ± 0.016 |
| C[C@@H]1CN([C@H](C)CO)C(=O)c2cc(NC(=O)C3CCCCC3)ccc2O[C@@H]1CN(C)Cc1ccc2c(c1)OCO2 | 1.05 ± 0.082 |
| C[C@@H]1CN([C@@H](C)CO)S(=O)(=O)c2ccc(C#Cc3cccc(F)c3)cc2O[C@@H]1CN(C)S(=O)(=O)c1cn(C)cn1 | 0.9512 ± 0.0018 |
| CCCNC(=O)N[C@@H]1C=C[C@H](CC(=O)N2CCN(C)CC2)O[C@H]1CO | 0.944 ± 0.021 |
| COc1ccc(NC(=O)N(C)C[C@@H]2OCc3ccccc3-c3ccccc3C(=O)N([C@@H](C)CO)C[C@H]2C)c(OC)c1 | 0.927 ± 0.026 |
| CCS(=O)(=O)Nc1ccc2c(c1)C(=O)N(C)[C@H]1CC[C@H](CC(=O)N[C@@H]3CCN(Cc4ccccc4)C3)O[C@@H]1CO2 | 1.12 ± 0.12 |
| COc1ccc2c3c([C@@H](CO)NC[C@]33CCN(Cc4cc(F)ccc4F)CC3)n(C)c2c1 | 0.973 ± 0.026 |
